Test [1] has as its target T1, endogenous flot-1 (HEK293) (human (endogenous in HEK293)) (UniProt O75955).
T1 sequence: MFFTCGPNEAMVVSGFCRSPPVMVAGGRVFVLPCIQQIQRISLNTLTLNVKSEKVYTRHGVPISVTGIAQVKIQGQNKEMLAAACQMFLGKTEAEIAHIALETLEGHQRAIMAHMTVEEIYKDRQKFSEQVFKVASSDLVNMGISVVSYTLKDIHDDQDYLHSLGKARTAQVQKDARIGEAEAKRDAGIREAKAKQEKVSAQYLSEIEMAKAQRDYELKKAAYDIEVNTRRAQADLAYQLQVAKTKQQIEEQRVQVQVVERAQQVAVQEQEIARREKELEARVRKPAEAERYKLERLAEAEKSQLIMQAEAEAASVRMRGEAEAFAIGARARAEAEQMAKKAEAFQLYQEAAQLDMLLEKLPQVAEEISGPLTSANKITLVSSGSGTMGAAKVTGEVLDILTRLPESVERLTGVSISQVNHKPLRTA
Description: co-IP; HEK293 cells transfected with flag-tagged WT DJ-1 or mutants (M26I, L166P); lysate immunoprecipitated with anti-flot-1 antibody, protein G-agarose, RIPA buffer; Western blot for flot-1 and DJ-1. (In general: A western blot detects proteins with antibodies after separation by electrophoresis.)

In test [2] the target is T2, DJ-1 (mouse (endogenous in MEF)) (UniProt Q99LX0).
T2 sequence: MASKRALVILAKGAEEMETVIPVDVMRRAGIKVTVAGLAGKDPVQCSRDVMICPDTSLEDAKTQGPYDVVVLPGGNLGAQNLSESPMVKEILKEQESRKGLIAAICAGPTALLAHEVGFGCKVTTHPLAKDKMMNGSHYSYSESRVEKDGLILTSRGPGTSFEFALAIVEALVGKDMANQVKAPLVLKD
The test can be described thus: co-IP; lysates of WT and DJ-1 KO MEF cells in RIPA buffer; 1 mg supernatant with 1 ug anti-DJ-1 or anti-flot-1 antibody (IgG as negative control) overnight at 4 C, protein G-agarose, washed with ice-cold RIPA buffer; Western blot for DJ-1, flot-1 and cav-1.

The target of test [3] is T3, flotillin-1 (mouse (endogenous in MEF)) (UniProt O08917).
T3 sequence: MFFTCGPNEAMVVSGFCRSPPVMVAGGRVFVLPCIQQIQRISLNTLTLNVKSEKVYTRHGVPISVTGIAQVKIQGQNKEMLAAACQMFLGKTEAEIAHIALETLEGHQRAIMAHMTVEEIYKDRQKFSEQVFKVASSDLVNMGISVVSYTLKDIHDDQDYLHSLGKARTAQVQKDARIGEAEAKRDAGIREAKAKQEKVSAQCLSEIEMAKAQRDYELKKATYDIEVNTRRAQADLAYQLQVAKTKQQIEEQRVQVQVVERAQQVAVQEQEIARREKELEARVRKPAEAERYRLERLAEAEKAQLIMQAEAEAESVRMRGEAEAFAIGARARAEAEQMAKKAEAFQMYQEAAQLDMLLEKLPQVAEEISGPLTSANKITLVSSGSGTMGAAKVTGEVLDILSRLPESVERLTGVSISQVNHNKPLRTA
The test is described as above.

In test [4] the target is T3, flotillin-1 (mouse (endogenous in MEF)). Description: proximity ligation; in situ PLA (DuoLink kit) in fixed, permeabilised WT MEF cells with primary antibodies against DJ-1 and flot-1; confocal microscopy.

Results are given in words; binding and its absence hold for the method and conditions named. Binding seen in cells or lysates may run through a third protein. Some results given as binding are weak or reduced against the parent protein; the word gives no strength.

Regarding “flag-tagged DJ-1 L166P (from UniProt Q99497 1-189)”, the binding entry in test [1] is on record as “binds”.
As to “flag-tagged WT DJ-1 (from UniProt Q99497 1-189)”, the binding entry in test [1] was “binds”.
The same measure, in the same setting: next, “flag-tagged DJ-1 M26I (from UniProt Q99497 1-189)”: “binds”.

B1: caveolin-1 (protein, UniProt P49817 1-178)
chain: MSGGKYVDSEGHLYTVPIREQGNIYKPNNKAMADEVTEKQVYDAHTKEIDLVNRDPKHLNDDVVKIDFEDVIAEPEGTHSFDGIWKASFTTFTVTKYWFYRLLSTIFGIPMALIWGIYFAILSFLHIWAVVPCIKSFLIEIQCISRVYSIYVHTFCDPLFEAIGKIFSNIRISTQKEI
As for B1, the binding entry in test [2] was “no binding”.

B2: DJ-1 (protein, UniProt Q99LX0 1-189)
chain: MASKRALVILAKGAEEMETVIPVDVMRRAGIKVTVAGLAGKDPVQCSRDVMICPDTSLEDAKTQGPYDVVVLPGGNLGAQNLSESPMVKEILKEQESRKGLIAAICAGPTALLAHEVGFGCKVTTHPLAKDKMMNGSHYSYSESRVEKDGLILTSRGPGTSFEFALAIVEALVGKDMANQVKAPLVLKD
For the molecule B2, the binding result in test [3] and in test [4] was “binds” in each case.

Values taken from PMC4922019.
